Measurements from a collection of fitness landscapes (doi:10.1126/science.1257360).
This is one part of the list.

B1: PhoQ; a variant is named by its letters at X, in order, P23837 (parent)
chain: MKKLLRLFFPLSLRVRFLLATAAVVLVLSLAYGMVALIGYSVSFDKTTFRLLRGESNLFYTLAKWENNKLHVELPENIDKQSPTMTLIYDENGQLLWAQRDVPWLMKMIQPDWLKSNGFHEIEADVNDTSLLLSGDHSIQQQLQEVREDDDDAEMTHSVAVNVYPATSRMPKLTIVVVDTIPVELKSSYMVWSWFIYVLSANLLLVIPLLWVAAWWSLRPIEALAKEVRELEEHNRELLNPATTRELTSLVRNLNRLLKSERERYDKYRTTLTDLTHSLKTPLXXLQXXLRSLRSEKMSVSDAEPVMLEQISRISQQIGYYLHRASMRGGTLLSRELHPVAPLLDNLTSALNKVYQRKGVNISLDISPEISFVGEQNDFVEVMGNVLDNACKYCLEFVEISARQTDEHLYIVVEDDGPGIPLSKREVIFDRGQRVDTLRPGQGVGLAVAREITEQYEGKIVAGESMLGGARMEVIFGRQHSAPKDE

Variants of: B1
Assay: enrichment ratio after two sorts for PhoP signalling (ratio (wild type AVST 3.29)); higher = more functional
Conditions: with PhoP (E. coli)

PHWS and PVRK cannot be ordered by enrichment ratio: no more than 0.25 for the first, no more than 0.25 for the second.

QLRC and WLRW cannot be ordered by enrichment ratio: no more than 0.25 for the first, no more than 0.25 for the second.

QAND and SWAY cannot be ordered by enrichment ratio: no more than 0.25 for the first, no more than 0.25 for the second.

First: TGWV
Second: NHCR
The enrichment ratio of the first is higher: 4.33 for the first, no more than 0.25 for the second.

VETD and HCHR cannot be ordered by enrichment ratio: no more than 0.25 for the first, no more than 0.25 for the second.

VGVN and DSEM cannot be ordered by enrichment ratio: no more than 0.25 for the first, no more than 0.25 for the second.

ESLF and MHRV cannot be ordered by enrichment ratio: no more than 0.25 for the first, no more than 0.25 for the second.

DENP and KATN cannot be ordered by enrichment ratio: no more than 0.25 for the first, no more than 0.25 for the second.

LFET and VFIH cannot be ordered by enrichment ratio: no more than 0.25 for the first, no more than 0.25 for the second.

DRDT and YYAD cannot be ordered by enrichment ratio: no more than 0.25 for the first, no more than 0.25 for the second.

Compared with GGSV, VKQI is lower in enrichment ratio: 23.9 for the first, no more than 0.25 for the second.

DNFR and LKDM cannot be ordered by enrichment ratio: no more than 0.25 for the first, no more than 0.25 for the second.

First: GSVL
Second: PCAM
The enrichment ratio of the first is higher: 7.99 for the first, no more than 0.25 for the second.

ITQQ and WSTN cannot be ordered by enrichment ratio: no more than 0.25 for the first, no more than 0.25 for the second.

EQFG and VWGN cannot be ordered by enrichment ratio: no more than 0.25 for the first, no more than 0.25 for the second.

LMVK and GGKF cannot be ordered by enrichment ratio: no more than 0.25 for the first, no more than 0.25 for the second.

DVAD and VTKC cannot be ordered by enrichment ratio: no more than 0.25 for the first, no more than 0.25 for the second.

QRHR and QFYR cannot be ordered by enrichment ratio: no more than 0.25 for the first, no more than 0.25 for the second.

ELNS and RTES cannot be ordered by enrichment ratio: no more than 0.25 for the first, no more than 0.25 for the second.

LFMI and REDM cannot be ordered by enrichment ratio: no more than 0.25 for the first, no more than 0.25 for the second.

DNCS and PNDN cannot be ordered by enrichment ratio: no more than 0.25 for the first, no more than 0.25 for the second.

First: QSWL
Second: ASRG
The enrichment ratio of the first is higher: 11.6 for the first, no more than 0.25 for the second.

EITQ and YIVC cannot be ordered by enrichment ratio: no more than 0.25 for the first, no more than 0.25 for the second.

WDDF and TFPT cannot be ordered by enrichment ratio: no more than 0.25 for the first, no more than 0.25 for the second.

WRRK and GDNM cannot be ordered by enrichment ratio: no more than 0.25 for the first, no more than 0.25 for the second.

WFVA and LKTP cannot be ordered by enrichment ratio: no more than 0.25 for the first, no more than 0.25 for the second.

VFAY and SNYF cannot be ordered by enrichment ratio: no more than 0.25 for the first, no more than 0.25 for the second.

Going from VHEP to PQWW, the enrichment ratio falls from 2.38 to no more than 0.25.

NVKI and EKYP cannot be ordered by enrichment ratio: no more than 0.25 for the first, no more than 0.25 for the second.

RWTE and IPCV cannot be ordered by enrichment ratio: no more than 0.25 for the first, no more than 0.25 for the second.

RRGG and VQNY cannot be ordered by enrichment ratio: no more than 0.25 for the first, no more than 0.25 for the second.

NHQS and DNAR cannot be ordered by enrichment ratio: no more than 0.25 for the first, no more than 0.25 for the second.

TRNQ and FAFT cannot be ordered by enrichment ratio: no more than 0.25 for the first, no more than 0.25 for the second.

Compared with TYWP, THFN is higher in enrichment ratio: no more than 0.25 for the first, 1.03 for the second.

QRVQ and KIVN cannot be ordered by enrichment ratio: no more than 0.25 for the first, no more than 0.25 for the second.

DCWG and HMSQ cannot be ordered by enrichment ratio: no more than 0.25 for the first, no more than 0.25 for the second.

DEAC and FCGI cannot be ordered by enrichment ratio: no more than 0.25 for the first, no more than 0.25 for the second.

WRGG and KPQR cannot be ordered by enrichment ratio: no more than 0.25 for the first, no more than 0.25 for the second.

ARHT and MQKF cannot be ordered by enrichment ratio: no more than 0.25 for the first, no more than 0.25 for the second.

GPFF and PIVV cannot be ordered by enrichment ratio: no more than 0.25 for the first, no more than 0.25 for the second.

YFGV and VCAG cannot be ordered by enrichment ratio: no more than 0.25 for the first, no more than 0.25 for the second.

HPKQ and KTPF cannot be ordered by enrichment ratio: no more than 0.25 for the first, no more than 0.25 for the second.

FYQQ and QCIR cannot be ordered by enrichment ratio: no more than 0.25 for the first, no more than 0.25 for the second.

PVVC and PEAM cannot be ordered by enrichment ratio: no more than 0.25 for the first, no more than 0.25 for the second.

Compared with NLPS, MMAI is higher in enrichment ratio: no more than 0.25 for the first, 8.34 for the second.

VFLA and LPLG cannot be ordered by enrichment ratio: no more than 0.25 for the first, no more than 0.25 for the second.

KTLI and RIHI cannot be ordered by enrichment ratio: no more than 0.25 for the first, no more than 0.25 for the second.

NQVG and MFVF cannot be ordered by enrichment ratio: no more than 0.25 for the first, no more than 0.25 for the second.

MTKQ and LISW cannot be ordered by enrichment ratio: no more than 0.25 for the first, no more than 0.25 for the second.

DKND and LTKD cannot be ordered by enrichment ratio: no more than 0.25 for the first, no more than 0.25 for the second.

RSHG and RVQE cannot be ordered by enrichment ratio: no more than 0.25 for the first, no more than 0.25 for the second.

QPMV and PVIS cannot be ordered by enrichment ratio: no more than 0.25 for the first, no more than 0.25 for the second.

EKSC and VYLH cannot be ordered by enrichment ratio: no more than 0.25 for the first, no more than 0.25 for the second.

Going from TVTC to VIRF, the enrichment ratio falls from 14.5 to no more than 0.25.

First: SLMF
Second: SFGQ
The enrichment ratio of the first is higher: 2.69 for the first, no more than 0.25 for the second.

First: DVWC
Second: SVSR
The enrichment ratio of the first is lower: no more than 0.25 for the first, 6.38 for the second.

PWKF and MDFF cannot be ordered by enrichment ratio: no more than 0.25 for the first, no more than 0.25 for the second.

VRHA and CTLH cannot be ordered by enrichment ratio: no more than 0.25 for the first, no more than 0.25 for the second.

HMNR and RLKE cannot be ordered by enrichment ratio: no more than 0.25 for the first, no more than 0.25 for the second.

EIYL and GIGH cannot be ordered by enrichment ratio: no more than 0.25 for the first, no more than 0.25 for the second.

HFMD and PRRD cannot be ordered by enrichment ratio: no more than 0.25 for the first, no more than 0.25 for the second.

NREQ and LSDT cannot be ordered by enrichment ratio: no more than 0.25 for the first, no more than 0.25 for the second.

WPWR and ISQV cannot be ordered by enrichment ratio: no more than 0.25 for the first, no more than 0.25 for the second.

LPWN and GPPS cannot be ordered by enrichment ratio: no more than 0.25 for the first, no more than 0.25 for the second.

VKRP and AKEQ cannot be ordered by enrichment ratio: no more than 0.25 for the first, no more than 0.25 for the second.

VCYM and PVGV cannot be ordered by enrichment ratio: no more than 0.25 for the first, no more than 0.25 for the second.

QSQR and IKCA cannot be ordered by enrichment ratio: no more than 0.25 for the first, no more than 0.25 for the second.

Compared with MHMY, TCLV is higher in enrichment ratio: no more than 0.25 for the first, 9.44 for the second.

Compared with GLSD, MCAA is higher in enrichment ratio: no more than 0.25 for the first, 1.62 for the second.

EFIT and VPKS cannot be ordered by enrichment ratio: no more than 0.25 for the first, no more than 0.25 for the second.

PIQN and IEIL cannot be ordered by enrichment ratio: no more than 0.25 for the first, no more than 0.25 for the second.

QARC and AYAD cannot be ordered by enrichment ratio: no more than 0.25 for the first, no more than 0.25 for the second.

NSGI and ERQE cannot be ordered by enrichment ratio: no more than 0.25 for the first, no more than 0.25 for the second.

Compared with FLQM, KNCF is lower in enrichment ratio: 2.26 for the first, no more than 0.25 for the second.

Compared with FEQF, SKAC is higher in enrichment ratio: no more than 0.25 for the first, 3.45 for the second.

Going from FEVQ to RNWI, the enrichment ratio falls from 6.04 to no more than 0.25.

In the case of LVDP, the enrichment ratio is reported as no more than 0.25.
